The text below walks through data of PubChem BioAssay AID1346428 (National Center for Advancing Translational Sciences (NCATS), 2018).

Each structure is given as a SMILES string. The campaign covered roughly 48,000 compounds. About 1,200 (2.5%) were called active. Roughly 2% stayed inconclusive and do not appear here.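 Rule for the calls: active = activation of at least 60% and not above a set upper limit (about 1 call in 100 departs from these limits); inconclusive = activation of 40% to 60%, or above that upper limit; inactive = activation under 40%.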 This is one part of the list.

Chain of UniProt O75388 (O75388 whole entry, looked up): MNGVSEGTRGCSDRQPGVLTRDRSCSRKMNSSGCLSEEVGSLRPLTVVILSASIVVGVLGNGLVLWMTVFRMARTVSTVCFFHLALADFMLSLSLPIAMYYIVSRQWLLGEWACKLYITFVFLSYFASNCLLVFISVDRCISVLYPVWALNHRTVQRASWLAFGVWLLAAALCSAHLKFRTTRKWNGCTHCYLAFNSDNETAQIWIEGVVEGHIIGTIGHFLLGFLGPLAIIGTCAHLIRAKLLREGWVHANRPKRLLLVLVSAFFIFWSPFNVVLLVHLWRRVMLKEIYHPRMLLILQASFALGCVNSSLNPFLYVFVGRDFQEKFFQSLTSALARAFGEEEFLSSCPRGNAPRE

The assay concerns the target Probable G-protein coupled receptor 32 (Homo sapiens) (UniProt O75388). The assay can be described thus: qHTS for Agonists of Human Resolvin D1 Receptor DRV1. Note: 0% is about no effect. As to conditions: CHO-K1 GPR32 beta-arrestin PathHunter luminescence, 90 min; at 76.9 µM; active compounds read high; zero percent set by DMSO-only wells. In short, it runs like this:
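Step 1: seed CHO-K1 GPR32 beta-arrestin cells, 2,500/well, overnight at 37 °C. Step 2: add compounds, 90 min at 37 °C. Step 3: detection reagent, 1 h ambient, then luminescence.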
Take `CCOC(=O)c1ccc(NC(=O)CSc2ccc(-c3ccccn3)nn2)cc1`: the activation is inactive: 10.9%.

For `CCN(CC)c1cc(C)c2cc(NC(=O)c3ccccc3Cl)ccc2n1`, the activation is inactive: 44.7%.

For the compound `Cc1ccc(-c2nc3c(c(SCC(=O)N(C)c4ccccc4)n2)Cc2c(CO)cnc(C)c2O3)cc1`, the activation is inactive: 25%.

Take `O=C(Nc1cccc(OCc2cc(=O)n3ccccc3n2)c1)c1ccccc1Br`: the activation is inactive: -8.24%.

Consider `CCC1CN(C(=O)NCc2ccccc2)c2cc(Cl)ccc2O1` (centres undefined), for which the activation is inactive: -17%.

Take `Cn1c(=O)n(C)c2cc(N3CCOCC3)c(NC(=O)c3ccc(Cl)cc3)cc21`: the activation was inactive: -17.5%.

For the compound `O=C1C(=O)N(C2CCN(S(=O)(=O)c3ccccc3)CC2)CCN1Cc1ccccc1`, the activation was inactive: 19.4%.

For `COc1cccc(N2CCN(C(=O)C3CCCN(S(=O)(=O)c4ccc5c(c4)oc(=O)n5C)C3)CC2)c1` (centres undefined), the activation was inactive: 44.4%.

On to `COc1ccccc1CCNC(=O)C(=O)NCC(c1ccco1)S(=O)(=O)c1ccc(F)cc1` (centres undefined), for which the activation was inactive: -12.3%.

Regarding `COc1ccc(OC)c(CCNC(=O)c2cc3cccc4c3n2CC(C)S4)c1` (centres undefined), the activation is inactive: -27.1%.

On to `Cn1c(=O)c2c(nc(CN3CCN(c4ccccc4F)CC3)n2Cc2ccccc2F)n(C)c1=O`, for which the activation was inactive: -4.03%.

Consider `Cn1c2ccccc2c2c(C(=O)N3CCN(c4cccc(Cl)c4)CC3)cn(C3CCCCC3)c(=O)c21`, for which the activation was inactive: -18.6%.

`O=C(NCc1ccc2c(c1)CCN2C(=O)c1ccncc1)c1ccccc1Cl`: the activation was inactive: -8.68%.

On to `CCSc1ncc(Cl)c(C(=O)Nc2ccc(S(=O)(=O)Nc3ncccn3)cc2)n1`, for which the activation was inactive: 10.6%.

Consider `COc1cccc(CNC(=O)CCCn2ncn3c(cc4occc43)c2=O)c1OC`, for which the activation is inactive: -4.98%.

For `COC(=O)CN1C(=O)CSc2ccc(S(=O)(=O)Nc3cccc(C)c3)cc21`, the activation is inactive: -0.571%.

Turning to `CCCOC(C(=O)OC1CCN(C)CC1)(c1ccccc1)c1ccccc1`, the activation was inactive: -9.18%.

As for `Cc1cccc(C(=O)Nc2nc3nc(-c4ccccc4)cc(=O)n3[nH]2)c1`, the activation was inactive: 20.3%.

In the case of `COc1ccc(-n2c(=O)c3c4c(sc3n(Cc3ccc(C)cc3C)c2=O)CCC4)c(OC)c1`, the activation is inactive: -12%.

With `CCc1nc2ccccc2n2c(-c3ccccc3)c3c(=O)n(C)c(=O)n(C)c3c12`, the activation is inactive: -9.49%.

For the compound `CCc1c(C)nc2nncn2c1Nc1ccc(Cl)cc1`, the activation was inactive: 0.535%.

In the case of `CCOc1ccccc1NS(=O)(=O)c1ccc2c(c1)CC(C)N2C(=O)C1CC1` (centres undefined), the activation is inactive: 16.1%.

In the case of `COc1ccc(OC)c(CNC(=O)Cn2ncc3c([nH]c4ccc(C)cc43)c2=O)c1`, the activation was inactive: -10.6%.

For the compound `CCC(C(=O)Nc1ccc(C(C)=O)cc1)n1cnc2nc3c(cc2c1=O)CCCC3` (centres undefined), the activation was inactive: -12.3%.

As to `COc1cc(C(CC(=O)NCc2ccccc2)N2Cc3ccccc3C2=O)cc(OC)c1OC` (centres undefined), the activation is inactive: -3.39%.

With `Cc1cc(C)cc(NC(=O)CCc2nnc3n(C)c(=O)c4sccc4n23)c1`, the activation is inactive: 8.08%.

Consider `Cc1cc(C)n2nc(CNC(=O)c3ccccc3Cl)nc2n1`, for which the activation is inactive: 7.53%.

For `O=C(NCCc1csc(-c2ccc(F)cc2)n1)c1ccco1`, the activation was active: 109%.

As for `CC1=C(C(=O)Nc2cc(Cl)ccc2C)C2(CCCCC2)OC1=O`, the activation is inactive: -25.6%.

For `COc1ccc2c(C)c(CCC(=O)NCc3ccc(C)cc3)c(=O)oc2c1`, the activation was inactive: 42.5%.

In the case of `CCSc1ccc(C(=O)Nc2ccc(-c3nc4ccc(C)cc4s3)cc2)cc1`, the activation is inactive: 25.7%.

In the case of `COC(=O)c1c(SC)nc2ccccc2c1OCc1ccccc1Cl`, the activation is inactive: -19.3%.

Take `CCOc1ccc(NC(=O)C2CCN(c3nc4ccccc4[nH]3)CC2)cc1`: the activation was inactive: -21.8%.

As for `CC(C)(C)OC(=O)N1CCC(c2c(C(=O)NCCc3ccsc3)cnn2-c2ccccc2Cl)CC1`, the activation is inactive: -18.4%.

In the case of `CCOc1ccc(N2C(=O)CS(=O)(=O)C23C(=O)N(Cc2cccc(Cl)c2)c2ccccc23)cc1` (centres undefined), the activation was inactive: -14%.

For `COC(=O)C1=C(C)N=C2SCCC(=O)N2C1c1ccc(OCc2ccccc2)c(OC)c1` (centres undefined), the activation was inactive: -3.64%.

Take `CCOC(=O)c1c(C)[nH]c(C)c1S(=O)(=O)N(C)CC(=O)N1CCN(c2ccc(Cl)cc2)CC1`: the activation is inactive: 45.8%.

On to `Cc1ccc(-c2c(C(=O)N3CCN(c4cccc(C)c4)C(C)C3)oc(=O)c3ccccc23)cc1` (centres undefined), for which the activation was inactive: -22.7%.

`COc1cc(OC)cc(C(=O)Nc2cc(-c3nc4ccccc4[nH]3)ccc2C)c1`: the activation was inactive: -5.77%.

Turning to `CCOC(=O)C1CCCN(c2nc3c(S(=O)(=O)c4ccc(Br)cc4)nnn3c3ccsc23)C1` (centres undefined), the activation was inactive: -29.8%.

In the case of `O=C(/C=C/c1ccco1)Nc1ccc(F)cc1`, the activation was inactive: -15.4%.

Consider `COC(=O)c1c(SC)nc2ccccc2c1OCc1ccc(Br)cc1`, for which the activation is inactive: -3.87%.

For `OC[C@H]1O[C@@H](O[C@@H]2[C@@H](CO)O[C@](O)(CO)[C@H]2O)[C@H](O)[C@@H](O)[C@H]1O`, the activation is inactive: -4.21%.

As to `CCOC(=O)CN1CCCC1=O`, the activation was inactive: -5.59%.

For the compound `CCn1nc(-c2ccccc2)c(-c2ccccc2)c(C(=O)Nc2ccc(S(N)(=O)=O)cc2)c1=O`, the activation is inactive: -9.79%.

As to `COc1ccc(C(=O)Nc2ccc(-c3nnc4n3CCCCC4)cc2)cc1`, the activation was inactive: 45.5%.

Take `COc1cccc2c1Oc1ncccc1N(C(=O)CCC(=O)NCCC(C)C)C2`: the activation was inactive: -8.02%.

With `O=c1c2sccc2n(Cc2cc(=O)n3ccccc3n2)c(=O)n1-c1cc(F)ccc1F`, the activation was inactive: -11.1%.

Take `Cc1ccccc1CNC(=O)c1nn(-c2ccccc2F)nc1CO`: the activation is inactive: -4.25%.

Consider `O=S(=O)(c1ccc(Cl)cc1)c1nc(-c2ccccc2Br)oc1NCc1ccccc1`, for which the activation was inactive: -8.64%.

Consider `Cc1cc(C)c(NC(=O)CSc2nc3ccccc3c3nc(CCn4cncc4C)nn23)c(C)c1`, for which the activation is inactive: 14.8%.

`CCN(CC)CCCNc1cc(-c2ccccc2)nc(C)n1`: the activation was inactive: -8.48%.

`Cc1ccc(C)c(OCCn2c(C3CC(=O)N(Cc4ccc(F)cc4)C3)nc3ccccc32)c1` (centres undefined): the activation was inactive: -18.3%.

With `CCN1CCN(C(=O)c2ccc3c(c2)N(Cc2cccc(Cl)c2)C(=O)c2ccccc2S3=O)CC1` (centres undefined), the activation was inactive: -22.2%.
